This note sets out measurements from paper PMC4336329 (PLoS ONE, 2015).

Out of some 310,000 compounds screened, about 14,000 (4.5%) showed an effect of 50% or more. The effect is printed as a negative number. Some of the results follow.
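Further: peak tail current of the secondary pulse compared with the same well before compound.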

Chain of human ether-à-go-go-related gene (hERG) potassium channel (Q12809 whole entry, looked up): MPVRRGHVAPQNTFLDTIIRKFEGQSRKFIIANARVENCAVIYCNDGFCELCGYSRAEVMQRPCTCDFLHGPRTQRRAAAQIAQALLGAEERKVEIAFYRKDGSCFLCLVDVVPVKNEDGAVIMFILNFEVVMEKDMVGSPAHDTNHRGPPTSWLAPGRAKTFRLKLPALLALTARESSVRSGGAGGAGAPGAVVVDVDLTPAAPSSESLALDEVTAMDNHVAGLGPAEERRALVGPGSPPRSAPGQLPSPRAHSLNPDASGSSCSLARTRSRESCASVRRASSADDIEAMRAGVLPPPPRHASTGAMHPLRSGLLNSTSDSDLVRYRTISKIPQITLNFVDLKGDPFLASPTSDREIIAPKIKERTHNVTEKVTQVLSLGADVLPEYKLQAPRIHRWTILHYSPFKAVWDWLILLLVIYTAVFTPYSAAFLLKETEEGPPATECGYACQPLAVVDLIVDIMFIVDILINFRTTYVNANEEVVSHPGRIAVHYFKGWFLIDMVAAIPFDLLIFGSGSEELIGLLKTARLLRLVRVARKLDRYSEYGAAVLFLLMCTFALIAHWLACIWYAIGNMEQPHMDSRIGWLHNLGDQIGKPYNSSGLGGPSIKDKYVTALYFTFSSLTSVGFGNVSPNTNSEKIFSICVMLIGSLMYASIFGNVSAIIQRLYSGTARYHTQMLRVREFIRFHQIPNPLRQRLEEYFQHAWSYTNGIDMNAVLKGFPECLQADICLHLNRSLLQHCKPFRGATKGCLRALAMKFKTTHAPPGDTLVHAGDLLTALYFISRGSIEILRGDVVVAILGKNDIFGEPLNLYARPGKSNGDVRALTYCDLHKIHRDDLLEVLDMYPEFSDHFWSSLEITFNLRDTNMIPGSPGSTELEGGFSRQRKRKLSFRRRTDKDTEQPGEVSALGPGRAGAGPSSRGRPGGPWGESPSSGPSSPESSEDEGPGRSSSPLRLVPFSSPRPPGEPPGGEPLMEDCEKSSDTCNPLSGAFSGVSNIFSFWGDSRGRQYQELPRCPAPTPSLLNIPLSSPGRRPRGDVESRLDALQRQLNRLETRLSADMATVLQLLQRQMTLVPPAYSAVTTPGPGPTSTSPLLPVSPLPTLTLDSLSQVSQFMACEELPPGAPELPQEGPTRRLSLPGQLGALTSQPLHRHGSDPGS

This test addresses human ether-à-go-go-related gene (hERG) potassium channel (human, UniProt Q12809). The test can be described thus: primary screen, population patch clamp on CHO cells stably expressing hERG.
Turning to `O=C(c1cc[n+]([O-])cc1)N1CCc2c([nH]c3ccccc23)C1c1ccccc1Cl` (stereo not drawn), the “hERG current change (%, negative = inhibition) at 10uM” value is listed as -13.8%. With `CC(NC(=O)CCNS(=O)(=O)c1ccc2c(c1)c(=O)n(C)c(=O)n2C)c1ccccc1` (stereo not drawn), the “hERG current change (%, negative = inhibition) at 10uM” value is reported as -0.52%. The result for `CC1CCN(S(=O)(=O)c2ccc(NC(=O)CN3CCN(C)CC3)cc2)CC1` reads -16%; that for `O=C(O)C1CCN(S(=O)(=O)c2cccnc2)CC1`, 10.5%; that for `O=C(NC1CCCC1)C1CCN(c2nccs2)CC1`, 6.3%. `CCOCCn1c(SCc2ccc(F)cc2)nc2c1c(=O)[nH]c(=O)n2C`: the “hERG current change (%, negative = inhibition) at 10uM” value is recorded as -19.5%. On to `COc1ccc(Nc2oc(-c3ccco3)nc2S(=O)(=O)c2ccc(F)cc2)cc1`, for which the “hERG current change (%, negative = inhibition) at 10uM” value is on record as -9.96%.

With `O=C(Nc1cccc(O)c1)c1ccc([N+](=O)[O-])cc1Cl`, the “hERG current change (%, negative = inhibition) at 10uM” value is reported as -10.2%. To `COc1cc(Cl)c(C)cc1NC(=O)Cn1c(NCCO)nc2ccccc21` belongs -6.08%; to `COc1cccc(/C=N/N2C(=O)CSC2=S)c1O`, 15.4%; to `COc1cc(/C=C/[N+](=O)[O-])ccc1OC(=O)/C=C/c1ccc(F)cc1`, 20.8%. `Cc1ccc(-c2nn(-c3cc(N4CCNCC4)ccc3[N+](=O)[O-])c(=O)c3ccccc23)cc1`: the “hERG current change (%, negative = inhibition) at 10uM” value is -7.46%. On to `CC(OC(=O)c1ccccc1NS(=O)(=O)c1cccc(N)c1)C(=O)N(C)Cc1ccccc1` (stereo not drawn), for which the “hERG current change (%, negative = inhibition) at 10uM” value is -7.88%.

Turning to `COc1ccc(-c2[nH]ncc2CN2CCN(c3ccccn3)CC2)c(OC)c1`, the “hERG current change (%, negative = inhibition) at 10uM” value was -31.5%. Regarding `COc1ccc(CN(C)CC(=O)NC(C)c2ccccc2)c(OC)c1` (stereo not drawn), the “hERG current change (%, negative = inhibition) at 10uM” value was -13.8%.

`COc1ccccc1-c1cc(C(F)(F)F)nc(N2CCCCC2)n1`: the “hERG current change (%, negative = inhibition) at 10uM” value is -1.99%. Turning to `Cn1ncc2c(Nc3cccc([N+](=O)[O-])c3)ncnc21`, the “hERG current change (%, negative = inhibition) at 10uM” value amounted to 7.09%. Take `Cc1ccc(C(=O)Nc2cccc(C(F)(F)F)c2)cc1Nc1ccccn1`: the “hERG current change (%, negative = inhibition) at 10uM” value is given as -67.4%.

In the case of `CCN(CC)c1ccc(NC(=O)COC(=O)/C=C/c2nc3ccccc3s2)cc1`, the “hERG current change (%, negative = inhibition) at 10uM” value is 16.3%.

Take `CC(=O)NS(=O)(=O)c1ccc(N=c2ssc3c2-c2cc(C)ccc2NC3(C)C)cc1`: the “hERG current change (%, negative = inhibition) at 10uM” value is -3.4%. To `CCOC(=O)c1csc(NC(=O)CN2CCCCC2)n1` belongs 24.7%; to `CC(=O)O.CC1(C)CC(=O)C2=C(C1)NC1=C(C(=O)c3ccccc31)C2c1cc([N+](=O)[O-])ccc1O` (stereo not drawn), -37.1%. Take `CN(C)CCCOc1cccc(Oc2ccccc2)c1.O=C(O)C(=O)O`: the “hERG current change (%, negative = inhibition) at 10uM” value is -34.5%. In the case of `CCCn1c(SCC(=O)c2cc(OC)ccc2OC)nnc1C(C)C`, the “hERG current change (%, negative = inhibition) at 10uM” value turned out to be 4.09%.

Consider `CC12CC(c3ccccc3O1)N(C(=O)c1ccc(Br)o1)C(=O)N2c1ccccc1` (stereo not drawn), for which the “hERG current change (%, negative = inhibition) at 10uM” value was determined as 24.5%. For the compound `Cc1cc(NC(=O)COC(=O)c2ccccc2[N+](=O)[O-])no1`, the “hERG current change (%, negative = inhibition) at 10uM” value worked out at 5.86%. To `COc1ccc(NC(=O)CSc2nc(N)c(C#N)cc2C#N)cc1` belongs -14.2%; to `Cn1cc(/C=C(\C#N)C(=O)Nc2ccccc2O)c2ccccc21`, 16.8%. As for `COc1cccc(NC(=O)CN(c2cccc(F)c2)S(C)(=O)=O)c1`, the “hERG current change (%, negative = inhibition) at 10uM” value is on record as 1.62%. The result for `Cc1ccccc1-n1c(O)c(/C=N/c2nccs2)c(=O)[nH]c1=O` [22412411] reads 4.23%; that for `[O-]/[N+](=C\c1ccco1)c1ccc(Cl)cc1`, 24.1%; that for `CCC(C)(C)NC(=O)/C=C/c1cccs1`, -10.9%. As for `O=C(Cc1ccc(S(=O)(=O)N2CCOCC2)s1)Nc1ccc(S(=O)(=O)N2CCCCC2)cc1`, the “hERG current change (%, negative = inhibition) at 10uM” value was determined as 21.2%. In the case of `CCOC(=O)c1c(C)[nH]c(C)c1C(=O)COC(=O)/C=C/c1ccc(Cl)cc1`, the “hERG current change (%, negative = inhibition) at 10uM” value is recorded as 3.18%.

For the compound `COc1ccc2cc1Oc1ccc(cc1)C[C@H]1c3cc(c(OC)cc3CCN1C)Oc1c(OC)c(OC)cc3c1[C@@H](C2)N(C)CC3`, the “hERG current change (%, negative = inhibition) at 10uM” value was -57.4%.

With `CC(NC(=O)c1cccc(S(=O)(=O)N(C)C)c1)C1CC2CCC1C2` (stereo not drawn), the “hERG current change (%, negative = inhibition) at 10uM” value was found to be 20%. `CNc1nnc(-c2cc3ccccc3oc2=O)s1`: the “hERG current change (%, negative = inhibition) at 10uM” value stood at 9.69%. The result for `Cc1ccc(S(=O)(=O)NCCC(=O)N2CCN(Cc3ccccc3)CC2)cc1` reads 11%.

Turning to `CCOc1ccc2cc(C(=O)NCc3ccccc3)c(=N)oc2c1`, the “hERG current change (%, negative = inhibition) at 10uM” value worked out at 13.8%.

For the compound `O=C(OCC(=O)N1CCN(c2ccccc2)CC1)c1ccc(Cl)nc1`, the “hERG current change (%, negative = inhibition) at 10uM” value is listed as 1.69%. For the compound `CCC(Cc1ccccc1)NC(=O)Cn1ncc2ccsc2c1=O` (stereo not drawn), the “hERG current change (%, negative = inhibition) at 10uM” value is reported as 2.8%. For `CCOc1cc(C2NN=C(c3ccccc3)S2)ccc1OCc1ccc(F)cc1` (stereo not drawn), the “hERG current change (%, negative = inhibition) at 10uM” value was determined as 14.2%. For the compound `NC(=O)c1ccc(N2CCCCCC2)c([N+](=O)[O-])c1`, the “hERG current change (%, negative = inhibition) at 10uM” value stood at 3.08%. Consider `CC(C)Oc1ccccc1-c1nc(SCC(=O)O)n[nH]1`, for which the “hERG current change (%, negative = inhibition) at 10uM” value is recorded as 10.3%.

As to `Cc1cccnc1N(C(=O)Nc1cccc(Cl)c1)C1=NCC(C)(C)S1`, the “hERG current change (%, negative = inhibition) at 10uM” value was 8.13%. For `Cc1ccc(S(=O)(=O)N2CCC(C(=O)OCCOc3cccc(C)c3)CC2)cc1`, the “hERG current change (%, negative = inhibition) at 10uM” value is on record as -1.76%. The result for `O=C1C2C(c3cccc(/C=C/c4ccccc4)c3)CC=CC2C(c2ccc3ccccc3c2)N1Cc1ccccc1` (stereo not drawn) reads 12.1%; that for `O=C(NCCCN1CCCCC1)c1ccc2c(c1)NC(=O)c1ccccc1S2`, -13.7%; that for `CC(C)COc1ccc(N)cc1OCC(C)C.Cl`, 6.16%.

For `O=C(c1cccc(C(=O)N(c2ccccn2)C2CCCCC2)c1)N(c1ccccn1)C1CCCCC1`, the “hERG current change (%, negative = inhibition) at 10uM” value is reported as 3.47%. With `CCCCOc1ccc(C2=CSC3=NCCN23)cc1[N+](=O)[O-]`, the “hERG current change (%, negative = inhibition) at 10uM” value is listed as -71%. `CCN1CCCC1CNC(=O)C1CCN(C(=O)c2cc3sccc3n2Cc2ccc(F)cc2)CC1` (stereo not drawn): the “hERG current change (%, negative = inhibition) at 10uM” value is -25.9%. On to `CCOc1ncccc1C(=O)N(CC)CC(=O)Nc1ccc(NC(C)=O)cc1`, for which the “hERG current change (%, negative = inhibition) at 10uM” value turned out to be 0.782%. Take `Cc1sc(NC(=O)c2cccs2)c(C(N)=O)c1C`: the “hERG current change (%, negative = inhibition) at 10uM” value came to 4.5%.
